# Values of other authors, collected in PMC11006913.
# Some of the results follow.
# Biological target: HOXD13 Q325R (Homo sapiens) (UniProt P35453)
# Conditions: PBM; conditions not shown; double strand, one strand shown; scale: upbm affinity estimate (log intensity, higher = more binding, comparable within an allelic series)
row,Sequence,binding signal
1,TACAAAAA [8-mer TACAAAAA],12
2,TCGTACAA [8-mer TCGTACAA],11.9
3,TCTAAAAA [8-mer TCTAAAAA],11.6
4,AATATAAA [8-mer AATATAAA],12.1

# Biological target: HOXD13 R306W (Homo sapiens) (UniProt P35453)
# Conditions: PBM; conditions not shown; double strand, one strand shown; scale: upbm affinity estimate (log intensity, higher = more binding, comparable within an allelic series)
row,Sequence,binding signal
1,CTCATAAC [8-mer CTCATAAC],10.7
2,ATATTAAA [8-mer ATATTAAA],11.6
3,CCCATTAG [8-mer CCCATTAG],9.71
4,ATAAAATA [8-mer ATAAAATA],11.6
5,ATTAAATA [8-mer ATTAAATA],11.6
6,AATAAAAT [8-mer AATAAAAT],11.8
7,ATAAAATG [8-mer ATAAAATG],11.5
8,GATTAATA [8-mer GATTAATA],11.5
9,CACCTGTC [8-mer CACCTGTC],10.4
10,ACACCTGT [8-mer ACACCTGT],10.5
11,AATTTTAT [8-mer AATTTTAT],11.5
12,CATAAAAG [8-mer CATAAAAG],11.5

# Biological target: HOXD13 S316C (Homo sapiens) (UniProt P35453)
# Conditions: PBM; conditions not shown; double strand, one strand shown; scale: upbm affinity estimate (log intensity, higher = more binding, comparable within an allelic series)
row,Sequence,binding signal
1,ATAAAACG [8-mer ATAAAACG],12.1
2,AATAAAAT [8-mer AATAAAAT],12.2
3,ATAAAATG [8-mer ATAAAATG],12.1
